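Cultured in 96-well plates, cells were exposed to test compound for 48 hours across five concentrations. Definition used: TGI = concentration required for complete inhibition of growth.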
The molecules below were run on NCI-H322M lung (assay: inhibition of tumour cell growth, NCI panel, 48 h).
For `CN(CCCNC(=O)c1nn(-c2ccc(Cl)cc2Cl)c2c1ccc1ccccc12)CCCNC(=O)c1nn(-c2ccc(Cl)cc2Cl)c2c1ccc1ccccc12`, the TGI was 3.12 µM.
Work on `CC(C)C1OC(/C=C/c2ccccc2)OCC1(C)C` (stereo not drawn) yielded a TGI of over 100 µM.
Molecule `N#CCCN(CCN(C(=O)Nc1ccccc1)c1ccccc1)C(=O)Nc1ccccc1` has a TGI of over 100 µM.
For `O=C1/C(=C/c2ccco2)N=C(c2ccccc2)N1c1cc2cc(Sc3ccccc3)ccc2[nH]1`, the TGI was over 25 µM.
`NCCN1CC2CCC(CC2)C1` was tested, and the TGI was over 10 µM.
`COC(=O)[C@@]12OC[C@]34C([C@@H](O)C1O)[C@@]1(C)CC(=O)C(OC(=O)/C=C(/c5ccccc5)C(F)(F)F)=C(C)C1C[C@H]3OC(=O)[C@H](O)[C@H]42` (stereo partly drawn) was tested, and the TGI was over 50 µM.
With `Cc1ccc(S(=O)(=O)NC(=O)Nc2ccc(S(N)(=O)=O)cc2S(N)(=O)=O)cc1` the TGI was over 100 µM.
`O=C(/C=C/c1ccc(O)c(O)c1O)OCCc1ccccc1` was tested, and the TGI was 52.5 µM.
For `COc1cc(/C=C/c2cc(/C=C/c3ccc(O)c(OC)c3)oc(=O)c2)ccc1O`, the TGI was 20.6 µM.
`O=C(CCN1CCOCC1)Nc1ccc2sc3ccccc3c(=O)c2n1` was tested, and the TGI was over 100 µM.
`C=CCNC1=C2C[C@@H](C)C[C@@H](OC)[C@H](OC(=O)CN)[C@H](C)/C=C(\C)[C@@H](OC(N)=O)[C@H](OC)/C=C\C=C(/C)C(=O)NC(=CC1=O)C2=O` was tested, and the TGI was 37 µM.
`COCCOCC(=O)N(CCn1ccc(NC(c2ccccc2)(c2ccccc2)c2ccccc2)nc1=O)CCn1cnc2nc(N)[nH]c(=O)c21` showed a TGI of over 100 µM.
`O=C(Nc1ccccc1F)c1cc2ccc(O)cc2oc1=Nc1cccc(C(F)(F)F)c1` gave a TGI of 10.9 µM.
